# Test results as given in paper PMC4336329 (PLoS ONE, 2015).
# The campaign covered roughly 310,000 compounds. About 2,200 (0.71%) showed an effect of 50% or more. The effect is printed as a negative number. The list shows a part of the results.
# Biological target: human ether-à-go-go-related gene (hERG) potassium channel (human, UniProt Q12809)
# Assay: primary screen, population patch clamp on CHO cells stably expressing hERG
# Sequence of human ether-à-go-go-related gene (hERG) potassium channel (Q12809 whole entry, looked up): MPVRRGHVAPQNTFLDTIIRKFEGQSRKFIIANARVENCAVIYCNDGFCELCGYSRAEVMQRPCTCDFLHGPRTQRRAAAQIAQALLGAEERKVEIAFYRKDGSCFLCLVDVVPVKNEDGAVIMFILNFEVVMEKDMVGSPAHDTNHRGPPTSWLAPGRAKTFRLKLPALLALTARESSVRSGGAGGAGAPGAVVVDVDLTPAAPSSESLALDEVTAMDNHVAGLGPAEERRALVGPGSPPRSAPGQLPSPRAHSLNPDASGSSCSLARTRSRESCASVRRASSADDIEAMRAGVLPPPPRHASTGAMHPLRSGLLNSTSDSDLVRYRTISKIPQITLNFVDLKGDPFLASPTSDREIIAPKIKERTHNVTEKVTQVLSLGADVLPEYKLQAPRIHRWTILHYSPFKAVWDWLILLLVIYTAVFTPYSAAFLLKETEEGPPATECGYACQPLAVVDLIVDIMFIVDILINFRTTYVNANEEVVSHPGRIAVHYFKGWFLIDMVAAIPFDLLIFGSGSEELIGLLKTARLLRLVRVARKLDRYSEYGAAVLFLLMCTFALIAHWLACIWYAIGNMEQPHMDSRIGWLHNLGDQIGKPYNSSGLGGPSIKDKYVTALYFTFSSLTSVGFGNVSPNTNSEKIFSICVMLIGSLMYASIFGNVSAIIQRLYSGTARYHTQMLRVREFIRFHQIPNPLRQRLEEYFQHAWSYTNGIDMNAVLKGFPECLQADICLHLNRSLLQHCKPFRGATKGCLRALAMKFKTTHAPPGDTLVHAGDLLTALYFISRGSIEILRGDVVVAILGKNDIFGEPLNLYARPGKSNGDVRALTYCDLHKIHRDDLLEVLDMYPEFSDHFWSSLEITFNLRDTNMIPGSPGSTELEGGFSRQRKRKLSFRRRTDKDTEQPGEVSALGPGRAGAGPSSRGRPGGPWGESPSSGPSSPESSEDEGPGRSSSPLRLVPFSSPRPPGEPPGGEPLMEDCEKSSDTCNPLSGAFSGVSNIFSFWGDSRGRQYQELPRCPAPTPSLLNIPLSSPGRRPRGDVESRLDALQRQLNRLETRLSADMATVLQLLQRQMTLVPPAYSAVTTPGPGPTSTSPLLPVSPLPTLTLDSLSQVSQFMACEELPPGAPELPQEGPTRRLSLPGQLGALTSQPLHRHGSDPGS
row,Compound,"hERG current change (%, negative = inhibition) at 1uM [%]"
1,CC(=O)N1CCC(c2c[nH]c3ccccc23)CC1,14.8
2,C[C@@H](CSc1ccc(Br)cc1)CN1CC[C@H](C(C)(C)C)CCC1=O,13.1
3,S=c1[nH]nc(-c2ccc3ccccc3n2)n1-c1ccccc1,22.2
4,Cc1ccc(S(=O)(=O)NCC(C)NC(=O)CN2CCOCC2)cc1 (centres unmarked),16.3
5,CCC(=NCCc1ccc(OC)c(OC)c1)c1ccccc1O,16.9
6,Cn1cc(C(=O)NC2CCCCCC2)c(=O)c2cc(S(=O)(=O)N3CCCC3)ccc21,5.63
7,Cc1cccc(CN(C)CCc2ccccn2)c1,-1.69
8,O=C(N/N=C(\c1ccccc1)c1ccccn1)c1cccc([N+](=O)[O-])c1,-15.5
9,COc1cc2nc(N3CCN(C(=O)[C@H]4COc5ccccc5O4)CC3)nc(N)c2cc1OC,0.273
10,CCc1cccc(NC(=O)C2CCCN(S(=O)(=O)c3cnc[nH]3)C2)c1 (centres unmarked),10.6
11,COc1ccc(-c2noc(-c3ccccc3F)n2)cc1,14.2
12,CCOC(=O)C(CCC#N)(CCC#N)C(=O)OCC,8.18
13,CCCc1nc2nc(C)c(NS(=O)(=O)c3ccc4c(c3)CCCC4)c(=O)n2[nH]1,12.6
14,COc1ccc(CNC[C@@H](CCCCN(C)Cc2ccc(OC)cc2)N2C[C@H](c3ccccc3)N(CCc3ccc(Cl)c(Cl)c3)C(=O)C2=O)cc1,11.2
15,O=C(COC(=O)c1ccc2ncsc2c1)NCc1ccc(Cl)cc1,11.3
16,COc1ccc(CCN2C(=NC(C)=O)SC3CS(=O)(=O)CC32)cc1OC (centres unmarked),11.1
17,CC1Cc2cc(/C(O)=C3\C(=O)C(=O)N(CCN(C)C)C3c3ccccc3F)ccc2O1 (centres unmarked),10.5
18,CN1CCC(NC(=O)CCc2ccccc2)CC1,24.9
19,CCc1ccc(NC(=O)CSC2=C(C#N)C(c3ccco3)C3=C(CCCC3=O)N2)cc1 (centres unmarked),2.99
20,COc1ccc(S(=O)(=O)N(CCCN2CCCC2=O)Cc2cc3c(C)ccc(C)c3[nH]c2=O)cc1,-3.03
21,COc1ccc(CC(=O)NNS(=O)(=O)c2ccc([N+](=O)[O-])cc2)cc1OC,16
22,Cc1ccccc1/C(N)=N/OC(=O)c1cccs1,5.41

row,Compound,"hERG current change (%, negative = inhibition) at 1uM [%]"
1,Cn1c(N)c(C(=O)Nc2cccc(Cl)c2)c(=O)n(C)c1=O,13.1
2,CCCCOc1cccc(OCC(=O)Nc2nc3ccccc3[nH]2)c1,25.8
3,O=C(CSc1ncnc2ccccc12)c1cccs1,7.28
4,Cc1cccc(/C(N)=N/OC(=O)CCc2ccccc2)c1,9.46
5,CSc1nsc(SCC(=O)Nc2ccc(C(N)=O)cc2)n1,14.3
6,CN1CCN(C(=O)CCC(=O)c2ccc(F)cc2)CC1,8.17
7,O=C(NN=C1CCC(c2ccccc2)CC1)c1ccccc1-n1cccc1 (centres unmarked),8.39
8,CCn1c(=O)c2ccccc2n2c(SCC(=O)NCc3cccs3)nnc12,11.3
9,COC(=O)c1sc(NC(=O)C2CCCO2)c(C(=O)OC)c1C (centres unmarked),12.2
10,CCOC(=O)c1ccc(NC(=O)NC2CC3CCC(C2)N3C(=S)NC)cc1 (centres unmarked),12.6
11,CCOc1cccc(/C(O)=C2/C(=O)C(=O)N(Cc3ccco3)C2c2ccncc2)c1 (centres unmarked),5.77
12,Cc1ccccc1OCC(=O)NCCCNC(=O)c1ccco1,4.46
13,O=C(NC(C(=O)N/N=C/c1cccnc1)c1n[nH]c(=O)c2ccccc12)c1ccccc1 (centres unmarked),6.62
14,CCc1ccc(-n2c(C)n[nH]c2=S)cc1,11.1
15,CCCN(C(=O)COC(=O)c1nc2nc(C)cc(C)n2n1)C1CCS(=O)(=O)C1 (centres unmarked),7.8
16,O=C1[C@@H]2[C@H](C(=O)N1O)[C@H]1C=C[C@@H]2C1,1.44
17,CCCCOC(=O)Sc1nc2ccccc2o1,11.5
18,CCN(CC)c1ccc(NC(=O)C2CC3CCC2C3)cc1 (centres unmarked),2.08
19,COCCSc1nnc(NS(=O)(=O)c2ccc(C)cc2)s1,7.8
20,COc1ccc(CCNC(=O)CC2COc3ccccc3O2)cc1OC (centres unmarked),8.23
21,COc1ccc(C(=O)CC(=O)c2ccccc2)cc1,5.2
22,CCCCNCCCOc1ccc(C)cc1Br.O=C(O)C(=O)O,3.78
